PubChem BioAssay AID504339 (National Center for Advancing Translational Sciences (NCATS), 2011)
Screen size: about 390,000 compounds; about 17,000 (4.4%) were called active. The inconclusive results got no clear call from the source; some entries with a clear call stand among them for comparison. Calls come from the whole dose curve; as a rule, active = well fitted inhibition curve with a large enough effect; inconclusive = small, poorly fitted or top-dose-only effect; inactive = no such curve, though single readings can be large or run the other way. Potencies beside an inconclusive call are fits to weak or partial responses and may not hold up.

What follows are molecules tested against Lysine-specific demethylase 4A (Homo sapiens) (UniProt O75164) (assay: qHTS Assay for Inhibitors of JMJD2A-Tudor Domain). Details: AlphaScreen JMJD2A-Tudor / H3K4me3 peptide binding; activity change, negative = inhibition: at 114 µM (top of the series).
Chain of UniProt O75164 (O75164 whole entry, looked up, the tested form may be a part): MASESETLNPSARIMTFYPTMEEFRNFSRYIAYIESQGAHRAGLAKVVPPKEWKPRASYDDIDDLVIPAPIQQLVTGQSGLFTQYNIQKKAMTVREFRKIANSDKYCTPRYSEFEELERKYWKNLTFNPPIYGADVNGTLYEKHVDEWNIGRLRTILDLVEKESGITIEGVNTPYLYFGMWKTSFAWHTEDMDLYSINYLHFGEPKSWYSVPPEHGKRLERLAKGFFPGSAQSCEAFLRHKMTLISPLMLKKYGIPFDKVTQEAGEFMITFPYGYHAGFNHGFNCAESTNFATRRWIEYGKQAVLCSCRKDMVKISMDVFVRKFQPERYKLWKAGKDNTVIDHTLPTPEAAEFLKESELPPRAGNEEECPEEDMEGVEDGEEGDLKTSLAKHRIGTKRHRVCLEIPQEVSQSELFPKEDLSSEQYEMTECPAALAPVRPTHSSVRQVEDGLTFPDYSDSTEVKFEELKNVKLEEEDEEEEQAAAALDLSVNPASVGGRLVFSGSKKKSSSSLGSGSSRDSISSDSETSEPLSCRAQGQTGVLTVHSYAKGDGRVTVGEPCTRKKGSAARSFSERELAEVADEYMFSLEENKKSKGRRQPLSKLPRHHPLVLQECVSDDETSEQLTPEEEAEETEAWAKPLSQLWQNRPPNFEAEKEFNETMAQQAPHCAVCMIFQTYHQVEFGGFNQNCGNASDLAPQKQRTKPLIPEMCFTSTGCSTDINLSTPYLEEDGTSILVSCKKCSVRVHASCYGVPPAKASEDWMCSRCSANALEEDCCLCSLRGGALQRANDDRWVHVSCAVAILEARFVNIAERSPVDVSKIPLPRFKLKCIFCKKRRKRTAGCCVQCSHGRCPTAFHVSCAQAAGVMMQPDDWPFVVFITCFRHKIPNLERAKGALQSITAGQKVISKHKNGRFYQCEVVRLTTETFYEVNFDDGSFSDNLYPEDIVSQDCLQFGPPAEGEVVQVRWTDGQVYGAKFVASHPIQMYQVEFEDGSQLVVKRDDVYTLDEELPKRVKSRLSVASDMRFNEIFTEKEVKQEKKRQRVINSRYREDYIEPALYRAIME
% is set by controls: 0 for no effect and ±100 for the full control effect; potency is the fitted concentration of half-maximal effect; tags give direction and shape of the fitted curve.
Note: nearly all actives have a fitted effect of over 50% in size.

Potency, active:
COc1cc(/C=C2/C(=O)c3cccc([N+](=O)[O-])c3C2=O)c(Br)cc1O 17.8 µM
Cn1c(CSCCOc2ccccc2)n[nH]c1=S 6.31 µM
Cc1cc(N=Nc2ccc(C)c(N=Nc3cc(C)c(N)cc3N)c2)c(N)cc1N 50.1 µM
COc1ccc(N2Cc3cccc(C(=O)NC(C)CCc4ccco4)c3C2=O)cc1 (stereo unspecified) 44.7 µM
NC(=O)C1CCN(c2nc(-c3ccccc3C(F)(F)F)cs2)CC1 79.4 µM

Potency, inconclusive:
COc1ccc(OC)c(NC(=O)CSc2nc3ccccc3c(=O)n2CC2CCCO2)c1 (stereo unspecified) 44.7 µM [inhibitor, partial curve, poor fit]
C/C(=N\N(Cc1ccccc1)c1ccccc1)c1ccncc1 56.2 µM [inhibitor, partial curve]
COc1ccc2[nH]cc(CCNS(=O)(=O)c3ccc(NC(C)=O)cc3)c2c1 56.2 µM [inhibitor, partial curve]
N#Cc1c(NC(=O)CSc2n[nH]c(Cc3ccccc3)n2)oc(-c2ccccc2)c1-c1ccccc1 31.6 µM [inhibitor, full curve]
COC(=O)C1=C(N)Oc2cc(C)n(CCCn3ccnc3)c(=O)c2C1c1ccc(Cl)cc1 (stereo unspecified) 79.4 µM [inhibitor, partial curve]
N#Cc1nc(COc2ccc(Br)cc2)oc1NCCCn1ccnc1 50.1 µM [inhibitor, partial curve]
c1ccc2c(c1)ncn2Cc1nnc2sc(-c3ccncc3)nn12 100 µM [inhibitor, partial curve]
CC1CCCN(C(=O)c2nn(C)c3c2CSc2ccccc2-3)C1 (stereo unspecified) 63.1 µM [inhibitor, partial curve, poor fit]
Nn1c(SCc2cc([N+](=O)[O-])cc3c2OCOC3)nnc1-c1ccccn1 17.8 µM [inhibitor, full curve]
Cc1ccc(-c2nc3cccnc3s2)cc1NC(=O)Cc1ccccc1 50.1 µM [inhibitor, partial curve]
O=C(O)c1n[nH]c2c1CCCCC2 35.5 µM [inhibitor, full curve]
COc1ccc(CCNc2nc(=S)[nH]c3cc(OC)c(OC)cc23)cc1OC 22.4 µM [inhibitor, full curve, poor fit]
COc1ccc(Nc2nc(N)nc(CSC(=S)N3CCCCC3)n2)cc1 79.4 µM [inhibitor, single point]
CC1=C(C(=O)OC2CCCC2)C(c2coc3ccc(C)cc3c2=O)C2=C(CCCC2=O)N1 (stereo unspecified) 50.1 µM [inhibitor, partial curve]
CCOC(=O)c1cc2occc2n1CCCN1C(=O)c2ccccc2C1=O 50.1 µM [inhibitor, partial curve]
CC(C)COc1ccccc1C1CC(=O)Nc2cc3c(cc21)OCO3 (stereo unspecified) 11.2 µM [inhibitor, partial curve, poor fit]
C=CCOc1cccc(C2C(C(=O)c3ccc(C)o3)=C(O)C(=O)N2CCN(C)C)c1 (stereo unspecified) 89.1 µM [inhibitor, single point]
O=c1[nH]c(CSc2nnc(COc3ccccc3)n2-c2ccccc2)nc2ccccc12 79.4 µM [inhibitor, partial curve]
Cc1ccc(-n2c(-c3ccco3)nc3nc4ccccc4nc32)cc1 100 µM [inhibitor, partial curve, poor fit]
COc1cccc(CNC(=O)Cn2ccc3cc(S(=O)(=O)N4CCC(C)CC4)ccc32)c1 15.8 µM [inhibitor, full curve]
Cn1c(=O)c2c(-c3ccccc3Br)n(CCc3ccccc3)cc2n(C)c1=O 44.7 µM [inhibitor, partial curve]
CCCCNC(=O)C(CC)(ONc1ccccc1C(F)(F)F)c1ccccc1OC (stereo unspecified) 44.7 µM [inhibitor, partial curve]
CCc1ccc(/C=N/NC(=O)c2nnn(-c3nonc3N)c2CN2CCc3ccccc32)cc1 12.6 µM [inhibitor, full curve, poor fit]

Activity change, negative = inhibition, inconclusive:
CCCCN(C(=O)c1cc2c(s1)CCC2)c1c(N)n(CCC)c(=O)[nH]c1=O -44.8% [inhibitor]

Activity change, negative = inhibition, inactive:
CC1Cc2cc(/C(O)=C3/C(=O)C(=O)N(CCCN4CCOCC4)C3c3ccc(C(C)C)cc3)ccc2O1 (stereo unspecified) -29%
COc1ccc(C)cc1NC(=O)C1CCN(S(=O)(=O)c2c(C)noc2C)CC1 -9.42%
CC(=O)c1cc(C#N)c(NCc2ccccc2)nc1C -18.3%
COC(=O)c1ccccc1N/C=C1\CCc2c(c(C)nn2-c2ccccn2)C1=O -30.8%
CCCc1cc(=O)oc2c(CN3CCCC3)c(O)ccc12 5.03%
CC(=O)N1CCc2c(sc3c2c(=O)n(Cc2ccccc2)c(=O)n3CC(=O)Nc2ccc(C)c(F)c2)C1 -28%
COC(=O)c1[nH]c2ccc(C)cc2c1NC(=O)Nc1ccccc1OC -5.81%
O=C(NCCc1ccccc1)C1COc2ccccc2O1 (stereo unspecified) -3.69%
CCOC(=O)C(Cc1ccccc1)C(=O)Nc1cccc(C)c1 (stereo unspecified) -7.53%
O=C(CN(CC1CCCO1)C(=O)CNS(=O)(=O)c1ccc(Cl)cc1)NCc1ccc(F)cc1 (stereo unspecified) -7.72%
CC(=O)c1cccc(NC(=S)N2CCN(S(=O)(=O)c3ccc(F)cc3)CC2)c1 -2.58%
COc1ccc(NC(C)=O)cc1NC(=O)C1CCCN1C(=O)c1cccs1 (stereo unspecified) -6.21%
C/C(=N\NC(=O)c1c(Br)c(C)nn1C)c1ccc(NC(=O)c2ccoc2C)cc1 -17.1%
O=C(CC1CCCC1)NCCS(=O)(=O)N1CCN(c2ccc(F)cc2)CC1 -6.21%
CCOC(=O)c1nn(-c2cccc(Cl)c2)c(C)c1C(C)=O -1.53% [at 57.1 µM]
O=C1O[C@H]([C@@H](O)CO)C(O)=C1O -15.9%
Cc1ccc(C)c(N2CCN(C(=O)CCc3nc(-c4ccc(F)cc4)no3)CC2)c1 -6.16%
